{"source": "PubChem BioAssay AID588855", "about": "(National Center for Advancing Translational Sciences (NCATS), 2011)", "note": "Several values for one entry are separate records, joined by “and”; a condition that tells them apart may be missing. Equal values may be shown once. The whole screen tested about 410,000 compounds, of which about 5,000 (1.2%) were called active. This list was built around the results that the source calls inconclusive (neither active nor inactive); the mix of calls is not that of the screen. The call rests on the fitted dose curve; in most records, active means well fitted inhibition curve with a large enough effect; inconclusive means small, poorly fitted or top-dose-only effect; inactive means no such curve, though single readings can be large or run the other way. Where the call is inconclusive, the potency comes from a doubtful curve fit. On the % scale 0 is the no-effect control and ±100 the full control effect; potency means the concentration at half of the fitted maximal effect; tags describe the fitted curve by direction and shape.", "data": [{"experiment": "qHTS for Inhibitors of TGF-b; further: nearly all actives have a fitted effect of over 65% in size", "settings": "HepG2 CAGA-GFP TGF-b/SMAD3 reporter, GFP fluorescence, 18 h, TGF-beta stimulated, 500 pg/mL final; series mostly up to 46.1 µM; activity, negative = inhibition: at the top concentration", "how_it_was_run": "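TGF-beta reporter screen: HEPG2 CAGA-GFP, 1% FBS, 500 pg/mL TGF-beta final, 18 h; per-cell GFP summed per well; curves fitted and categorized by class.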", "values": [{"compound": "COc1cc(S(=O)(=O)NCCOC23CC4CC(CC(C4)C2)C3)c(OC)cc1Cl", "Potency": "inconclusive: 25.1 µM [inhibitor, single point]"}, {"compound": "Cc1cccc(NC(=S)NC(C)(C)CC(C)(C)C)c1", "Potency": "inconclusive: 15.8 µM [inhibitor, partial curve]"}, {"compound": "Cc1ccc(CNC(=O)CC2(CC3=NS(=O)(=O)c4ccccc4N3)CCCC2)cc1", "Potency": "inconclusive: 14.1 µM [inhibitor, single point]"}, {"compound": "COc1ccccc1C/C(N)=N/OC(=O)c1cccc([N+](=O)[O-])c1", "Potency": "inconclusive: 5.62 µM [inhibitor, single point]"}, {"compound": "Cc1cc(C)cc(OCC(=O)Nc2nc3c(s2)CC(C(C)(C)C)CC3)c1", "note": "(centres undefined)", "activity, negative = inhibition": "inactive: -2.69%"}, {"compound": "Cc1cccc(-n2ncc(C(=O)N3CCN(C4CCCCC4)CC3)c2C2CCN(C(=O)OC(C)(C)C)CC2)c1", "Potency": "active: 8.91 µM"}, {"compound": "Cc1nn(-c2ccccc2)c(C)c1/C=N\\N1CCN(c2ccc(Cl)cc2)CC1", "activity, negative = inhibition": "inactive: 5.38%"}, {"compound": "Cc1cccc(NC(=S)NC(=O)CC2CC(C)(C)OC2=O)c1", "note": "(centres undefined)", "activity, negative = inhibition": "inactive: -4.14%"}, {"compound": "CN(C)S(=O)(=O)c1ccc(N2CCCC2)c(C(=O)Nc2ccc(C(N)=O)cc2)c1", "Potency": "inconclusive: 0.708 µM [inhibitor, partial curve, poor fit]"}, {"compound": "S=c1[nH]nc(C2CCCCC2)n1/N=C/c1ccccc1Cl", "Potency": "inconclusive: 3.98 µM [inhibitor, partial curve, poor fit]"}, {"compound": "O=C(CCNC(=O)c1ccccc1Cl)Nc1nc2ccc(F)cc2s1", "Potency": "inconclusive: 35.5 µM [inhibitor, single point]"}, {"compound": "Cc1cc(O)ccc1-c1cccc2nccn12", "Potency": "inconclusive: 3.55 µM [inhibitor, single point]"}, {"compound": "CC(O)CSc1nc2c(c(=O)[nH]c(=O)n2C)n1Cc1ccccc1", "note": "(centres undefined)", "activity, negative = inhibition": "inactive: 14%"}, {"compound": "CCOc1ccccc1N1CCN(c2ncnc3scc(-c4ccc(OC)cc4)c23)CC1", "Potency": "inconclusive: 35.5 µM [inhibitor, single point]"}, {"compound": "COc1ccc(-c2ccccc2)cc1NC(=O)c1ccncc1", "activity, negative = inhibition": "inactive: 5.83%"}, {"compound": "Cc1cc(C)c(NC(=O)C(C)n2c(=O)c(C(F)(F)F)nc3ccccc32)c(C)c1", "note": "(centres undefined)", "activity, negative = inhibition": "inactive: -24.8%"}, {"compound": "COc1cc(C2C(C#N)=C(N)N(Nc3ccccc3)C3=C2C(=O)CC(C)(C)C3)ccc1OCc1ccccc1", "note": "(centres undefined)", "Potency": "inconclusive: 15.8 µM [inhibitor, single point]"}, {"compound": "CCOC(=O)c1c(C)[nH]c(C(=O)C(C)OC(=O)c2oc3ccccc3c2COC)c1C", "note": "(centres undefined)", "Potency": "inconclusive: 20 µM [inhibitor, single point]"}, {"compound": "Cc1nnc(SCC(=O)N2CCc3ccccc3C2)n1-c1ccccc1", "activity, negative = inhibition": "inactive: 13.3%"}, {"compound": "O=C(C1CCN(S(=O)(=O)c2cccc3cccnc23)CC1)N1CCN(c2ccccc2)CC1", "activity, negative = inhibition": "inactive: -23.6%"}, {"compound": "Cc1cccc(NC(=O)c2sc(NC(=O)COc3ccccc3)c(C#N)c2C)c1C", "activity, negative = inhibition": "inactive: 0%"}, {"compound": "CCc1nnc(NC(=O)c2nc(S(=O)(=O)Cc3ccc(C)cc3)ncc2Cl)s1", "Potency": "inconclusive: 31.6 µM [inhibitor, single point] and inconclusive: 35.5 µM [inhibitor, single point]"}, {"compound": "Nc1ccccc1SSc1ccccc1N", "Potency": "inconclusive: 10 µM [inhibitor, partial curve, poor fit]"}, {"compound": "CCN(c1cccc(C)c1)S(=O)(=O)c1ccc(N2CCCCS2(=O)=O)cc1", "Potency": "inconclusive: 35.5 µM [inhibitor, single point]"}, {"compound": "COc1ccc(NC(=O)c2ccc(-c3nc(CSc4ccc(C)cc4)c(C)o3)cc2)cc1Cl", "Potency": "inconclusive: 0.0891 µM [inhibitor, full curve, poor fit]"}, {"compound": "Cc1ccc(NC(=O)c2cc(S(=O)(=O)N(C)C3CCCCC3)ccc2F)cc1C", "activity, negative = inhibition": "inactive: 0%"}, {"compound": "COc1ccccc1C(=O)Oc1c(Sc2ccccc2)c(C)nn1C(C)(C)C", "Potency": "inconclusive: 35.5 µM [inhibitor, single point]"}, {"compound": "Cc1ccc(C(=O)NC(C#N)=C(Cl)Cl)cc1", "Potency": "inconclusive: 22.4 µM [inhibitor, single point]"}, {"compound": "Cc1nc2cc(-c3ccc(Cl)cc3)nn2c(C)c1CCC(=O)NC(C)c1ccc2c(c1)OCCO2", "note": "(centres undefined)", "Potency": "inconclusive: 35.5 µM [inhibitor, single point]"}, {"compound": "COc1ccc(CN(C(=O)c2snc(C(N)=O)c2N)C(C(=O)NC2CCCC2)c2cc(OC)ccc2OC)cc1", "note": "(centres undefined)", "activity, negative = inhibition": "inactive: -37%"}, {"compound": "COC(=O)c1ccc(CSc2nncn2C)cc1", "Potency": "inconclusive: 3.16 µM [inhibitor, single point]"}, {"compound": "Cc1ccc(CNC(=O)CCC2CCCN(Cc3cc4ccccc4o3)C2)o1", "note": "(centres undefined)", "Potency": "inconclusive: 11.2 µM [inhibitor, partial curve]"}, {"compound": "O=C(Nc1ccc(C(=O)N2CCN(c3cccc(Cl)c3)CC2)cc1)c1nsc2ccccc12", "activity, negative = inhibition": "inactive: 27.8%"}, {"compound": "COc1ccccc1-c1nc(SCC(=O)c2ccccc2)n[nH]1", "activity, negative = inhibition": "inactive: -19.8%"}, {"compound": "COc1ccc(NC(=O)c2ccc3c(c2)CCN3S(=O)(=O)c2ccccc2)c(OC)c1", "activity, negative = inhibition": "inactive: -4.31%"}, {"compound": "Cc1cc(NC(=O)CSc2cc(Cl)ccc2Cl)n(-c2ccccc2)n1", "Potency": "inconclusive: 35.5 µM [inhibitor, single point]"}, {"compound": "Cc1ccc(NC(=O)CSc2nnnn2-c2ccc3c(c2)OCO3)cc1C", "Potency": "inconclusive: 35.5 µM [inhibitor, single point]"}, {"compound": "COc1ccc(/C=C2\\Sc3ccc(C(=O)NCc4cccnc4)cc3N(C)C2=O)cc1OC", "activity, negative = inhibition": "inactive: -8.85%"}, {"compound": "O=C(Nc1ccc(C(F)(F)F)cc1)c1ccccc1", "Potency": "inconclusive: 35.5 µM [inhibitor, single point]"}, {"compound": "CC(=O)Nc1cccc(-c2cc(NC(C)=O)c3ncc(-c4ccc(F)cc4)n3c2)c1", "activity, negative = inhibition": "inactive: -7.01%"}, {"compound": "CSc1ccccc1OCc1cc(C(=O)NCc2ccc(C)s2)no1", "Potency": "inconclusive: 35.5 µM [inhibitor, single point]"}, {"compound": "O=C1/C(=C\\c2cccc(O)c2)SC(=S)N1Cc1ccccc1", "Potency": "inconclusive: 35.5 µM [inhibitor, single point]"}, {"compound": "CCOC(=O)c1sc2ccccc2c1S(=O)(=O)Nc1ccc(N(C)C)cc1", "Potency": "inconclusive: 31.6 µM [inhibitor, partial curve, poor fit]"}, {"compound": "O=C(N/N=C/c1ccc(Cl)cc1)Nc1ccccc1", "activity, negative = inhibition": "inactive: -2.62%"}, {"compound": "Cc1ccccc1CSc1ccc(S(=O)(=O)N2CCCC2)cn1", "Potency": "inconclusive: 5.01 µM [inhibitor, single point]"}, {"compound": "CSc1ccc(S(=O)(=O)Nc2ccc(N3CCOCC3)c(Cl)c2)cc1", "Potency": "inconclusive: 3.16 µM [inhibitor, partial curve, poor fit]"}, {"compound": "O=C(N/N=C/c1ccc(O)cc1)c1csc2ccccc12", "activity, negative = inhibition": "inactive: 45%"}, {"compound": "Cc1ccc(C(C(=O)NC2CCCCC2)N(C(=O)Cc2c[nH]c3ccccc23)c2ccccc2C)o1", "note": "(centres undefined)", "activity, negative = inhibition": "inactive: 4.49%"}, {"compound": "COc1ccccc1CCNC(=O)c1ccc2c(c1)c(C)c(C)n2C", "Potency": "inconclusive: 1.26 µM [inhibitor, partial curve]"}, {"compound": "N#Cc1ccc(/C=C/C(=O)c2ccco2)cc1", "Potency": "inconclusive: 35.5 µM [inhibitor, single point]"}, {"compound": "CCOC(=O)N1CCC(N2Cc3cccc(C(=O)N4CCN(C5CCCCC5)CC4)c3C2=O)CC1", "activity, negative = inhibition": "inactive: -2.66%"}, {"compound": "CN(C)c1ccc(/C=C/C=C2/C=Cc3ccccc32)cc1", "activity, negative = inhibition": "inactive: 2.37%"}, {"compound": "Cc1ccc(NC(=O)C(C)c2ccc([N+](=O)[O-])cc2)cc1Cl", "note": "(centres undefined)", "Potency": "inconclusive: 31.6 µM [inhibitor, single point]"}, {"compound": "O=C(Cc1c(F)cccc1Cl)N1CCN(S(=O)(=O)c2cccs2)CC1", "activity, negative = inhibition": "inactive: 1.6%"}, {"compound": "COc1cc(NC(=S)NC(=O)c2ccc(C(C)(C)C)cc2)ccc1NC(=O)c1cccs1", "activity, negative = inhibition": "inactive: -1.53%"}, {"compound": "CC(=O)Oc1ccc2nc(/C=C/c3ccc(C=O)cc3)oc(=O)c2c1", "activity, negative = inhibition": "inactive: 2.38%"}, {"compound": "Oc1cccc(Oc2ncc(C(F)(F)F)cc2Cl)c1", "Potency": "inconclusive: 35.5 µM [inhibitor, single point]"}, {"compound": "COC(=O)c1ccc(NC(=O)CC2C(=O)N(c3ccc(Cl)cc3)C(=O)N2Cc2cccs2)cc1", "note": "(centres undefined)", "Potency": "inconclusive: 35.5 µM [inhibitor, single point]"}, {"compound": "CCOc1ncccc1C(=O)NCc1cccc(OC)c1", "activity, negative = inhibition": "inactive: -29.4%"}, {"compound": "CN(CCc1ccccn1)S(=O)(=O)c1ccc(F)cc1", "Potency": "inconclusive: 14.1 µM [inhibitor, single point]"}, {"compound": "O=[N+]([O-])c1ccc(Oc2cccc3cccnc23)c([N+](=O)[O-])c1", "Potency": "inconclusive: 35.5 µM [inhibitor, partial curve, poor fit]"}, {"compound": "Cc1ccc(CCN2CCN=C2N(C)C)cc1", "Potency": "inconclusive: 8.91 µM [inhibitor, single point]"}, {"compound": "O=C(CSc1nnc(Cc2ccccc2)n1-c1cccc(Cl)c1)N1CCOCC1", "Potency": "inconclusive: 35.5 µM [inhibitor, single point]"}, {"compound": "CCOC(=O)Nc1ccc(/C=C/c2ccnc3ccccc23)cc1", "Potency": "inconclusive: 20 µM [inhibitor, single point]"}, {"compound": "CC(C)[C@H](NC(=O)OCc1ccccc1)C(=O)OCC(=O)Nc1c(F)cccc1F", "Potency": "inconclusive: 12.6 µM [inhibitor, single point]"}, {"compound": "CSc1ccc(S(=O)(=O)NCC(=O)OCC(=O)N2CCCCC2C)cc1[N+](=O)[O-]", "note": "(centres undefined)", "Potency": "inconclusive: 35.5 µM [inhibitor, single point]"}, {"compound": "C=CCC[C@@H](Cc1ccc(F)cc1)C(=O)OC[C@H](Cc1c[nH]c2ccccc12)NC(=O)[C@H](CC=C)CC(=O)NCCO", "Potency": "inconclusive: 35.5 µM [inhibitor, single point]"}, {"compound": "CCN(CC)S(=O)(=O)c1ccc(Cl)c(NC(=O)COC(=O)c2ccc(O)cc2)c1", "Potency": "inconclusive: 5.01 µM [inhibitor, single point]"}, {"compound": "COc1ccccc1-c1cc(C(F)(F)F)nc(S(=O)(=O)CCCC(=O)N2CCCCC2C)n1", "note": "(centres undefined)", "Potency": "active: 10 µM"}]}]}
